# Measurements as given in publication PMC10726135.
# The list shows a part of the results. At the low end of the ranking the order means little. The protein was read in a cell extract, so binding may be indirect.
# Target: T1, HNF4alpha2 (COS-7 nuclear extract) (UniProt P41235)
# T1 sequence: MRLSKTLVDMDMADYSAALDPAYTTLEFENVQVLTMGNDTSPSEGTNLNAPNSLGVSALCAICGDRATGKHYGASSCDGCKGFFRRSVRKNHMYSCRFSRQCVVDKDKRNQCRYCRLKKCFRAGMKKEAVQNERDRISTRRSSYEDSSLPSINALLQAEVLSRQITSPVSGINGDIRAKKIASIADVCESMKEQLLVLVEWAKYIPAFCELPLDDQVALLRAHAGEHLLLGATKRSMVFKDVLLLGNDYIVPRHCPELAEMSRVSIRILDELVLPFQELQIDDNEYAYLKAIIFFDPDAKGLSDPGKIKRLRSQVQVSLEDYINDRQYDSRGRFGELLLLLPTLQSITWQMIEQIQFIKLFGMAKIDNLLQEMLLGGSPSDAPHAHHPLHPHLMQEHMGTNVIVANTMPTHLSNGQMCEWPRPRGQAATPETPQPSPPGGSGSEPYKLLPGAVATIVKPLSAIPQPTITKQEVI
# Test: protein-binding microarray
# Settings: COS-7 nuclear extract on double-stranded Agilent 4x180k PBM; binding buffer, salt, pH and temperature not given; high values mean tight binding; double strand, one strand shown; sequences stand for … in …GCCTAGGGAGATTAGAGTATCGGTCGA
row,Sequence,binding signal (log2 normalized intensity)
1,CTGGTCAGAAGAAACATGCGATACTTGACC,2.05
2,ACAACTTTTCCTCTAACCACTTTGAAATAG,0.611
3,TTCAGAGGACTGCCCAGCTGCATCCTGTGC,-1.1
4,GACGTACGCTCCCAGTATGAGCGGCGCTGA,-1.19
5,GGAGTTTGTACTTTATCCTACAAGGGAGAT,2.01
6,GACCTTGTTTTCAATGACTACCTGTTACCC,1.45
7,GGCTGCAGAGGTTTCGCAAGGACGTGACCT,2.92
8,AAGGAGTGGAGGAAGGAAGAAGTGTTAAGG,-0.932
9,TTTCTGTATCTCTTCGCCTTGCTTATCTGG,1.59
10,AACACACCATGTACAGAGAGCATTCTGCTG,-0.779
11,TCTCTGAGCAGTCAAACTGGTTTCTTGTCT,1.25
12,ACGGCAAGCCATAGTTAACCCAGAAGACTG,-1
13,CCACTCCAGCCTCTCCACCAGGGGACCAGG,-1.24
14,CCACAGAATCGCCCCACCCTGCCTGGGTAG,1.35
15,TGTCCTTTGTCCCCCACCTGTGAAGATAAG,3.9
16,CCTTCACTCTGGGGCAATAACCCTAGACAC,-1.04
17,ATTTATTTTGTGTGCTAGATACTGGAGATA,0.795
18,AAAGCCCTCAAATACTCTGAGTAAACACAG,-1.12
19,AACTCCCAGTCTGTTATCAGAGCTGGAGGA,-1.14
20,GGCGGCCGCGCGCAGGGCGGACAGCGCCGC,-1.17
21,ATCTCTTTTGTGTTAGAGGGTGGTGGGTGA,1.72
22,ACACAGATCATATCATTTATTTGCTTAAAA,-0.857
23,GAGATCTAAGCGATAAGGAGGAAGGACACT,-1.08
24,TTGATCTTTGTGTACAAAGCCATCAGCACT,0.278
25,CAAAGGTCACGTTCCAGCTGCTTCAGGAGC,2.67

row,Sequence,binding signal (log2 normalized intensity)
1,TGGGAATGCCCTTTATACAGGCATGGAAGT,1.62
2,TTCTGAGCAAATATTTGGGGTATGTGCTCA,0.428
3,CCGAGCAGGACGCTACCCGCTTGGCGTAGG,-1.07
4,AACCAAGATAGTGACGGAGGTGACCTTTGG,6.38
5,TATTCCCAGGTTCCAAAGGTCACCCGTATT,6.51
6,GGGAATGTCACAGGGGCCATGCAGGGCAGG,-1.06
7,GTGAACTGGAGCAAAGGTCACTCTTGCTAT,4.5
8,TACTTTGCTTCCAAGTTATGCAGACCTTTG,2.14
9,ATCCCAAAGCTTTTTGATTGCTTATAGCTT,-0.345
10,CCACATGAATACACATAATGTGCTTATCAG,-0.605
11,GGGTGCAGGGAGAAGGCAAAAATGCAGGCA,-1.07
12,ACAGCAAAGATGAATCATGTAACCAAAATG,-0.449
13,GTCAAAACCACCTATTCTGAAGATTGCTAG,-1.12
14,CCTTTGGCAATATCTCCCAGCTGGAGTCTT,-0.0114
15,CTGACTAGAGTGGAGTGAAGTAAGAGTAGC,-1.12
16,GGACTGCAGGGGGCCAAGGGATACCCTGAG,-1.02
17,ATATTTACTTATGGTTTGACCCTGCGATAA,2.84
18,CAGTGGGAGACAGGCATTAACCCTTTAGTG,0.725
19,GTGTAAACAAGTGAGCATGGCTGTGTTCCA,0.523
20,TTGTTCAATAAGCAATACATTGAACTTTGA,7.41
21,AGAACCAAAGTCCTAGAGTCCCTATTTGCT,-1.11
22,CACTGGGGTCATGGAGCTGGAGGGCAAAGG,3.25
23,AGCAATTCAAATTCTTTGCCATGACCTTTG,5.51
24,TCTGTGTAGAAATTGTGGCTTGTGTAGTTA,1.65
25,TTCTCATCTTATCTAGTTTCCTAGCTCACT,-0.208

row,Sequence,binding signal (log2 normalized intensity)
1,GCAAGCCAGTCAGAATCTCTCTGTAGGTAA,0.523
2,ACAGTGATTGTCACAAGACTGTTATCACAG,-0.552
3,TGACCTTTGAAACTTACATTCTAAAGCAGA,4.45
4,TCTGGGTTAAACGTGCAGCAATAGGTCAGA,1.78
5,ACAAGGTGTGTTTGAGCAGGGGTGAACAAA,0.938
6,TACCATGTGTTGGCACTTTGGACTTGAGAA,4.51
7,TCCAAAGGTCACAGTAGGGAAAGTGGGGGG,1.49
8,CCTCTCTCTCCTGGCCTCTGAGATTCGGTG,-0.573
9,AGGGCCTAGAAGAGTTCCTGACAATTGGCC,-1.19
10,TGAGGCTAAGAGGTGAACACATTCCTCATT,-1.18
11,GACCAGCATTCTTTCTGCTGCAATTTAAGC,-1.25
12,TGCTCTCTCTCTTTTTCTGAGCCTGGGTCA,1.91
13,TTGCTTAAGCATAGCAAAAGTGACCTTTGC,8.56
14,AAGGTTGGTCTTAGGACCACATGAGTAAAC,-0.756
15,TGCAGCGGCATTCTCTGGTCTGCGGTTGTG,1.25
16,CACCCCAGCAAACAGGTCCTGCTGGTTTGC,0.79
17,TTTCTGAGCAGGATGTCCAGAATGAGTGTG,1.49
18,GTGGTGAGGAAAAGGAGGAGTTTGACCCCA,6.43
19,ACTGGGTCTTAATAAGATAATAAGTGACCC,3.78
20,TCCTTGATTAAACTTTAGTCAGATTCCTCT,1.33
21,TCAGTGAAGGCCTCTGATGATTCTAAAGGC,-1.26
22,TCCCTAACCCTTCAAGGGCCACTCAGTTGA,-1.07
23,CAAGGACACTGAAAGGCATTCTGCCAACAC,-1.1
